# Laboratory results taken from paper PMC4336329 (PLoS ONE, 2015).
# Screen size: about 310,000 compounds; about 14,000 (4.5%) showed an effect of 50% or more. The effect is printed as a negative number. Some of the results follow.
# Target: human ether-à-go-go-related gene (hERG) potassium channel (human, UniProt Q12809)
# Test: primary screen, population patch clamp on CHO cells stably expressing hERG
# 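Note: peak tail current of the secondary pulse compared with the same well before compound.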
# Sequence of human ether-à-go-go-related gene (hERG) potassium channel (Q12809 whole entry, looked up): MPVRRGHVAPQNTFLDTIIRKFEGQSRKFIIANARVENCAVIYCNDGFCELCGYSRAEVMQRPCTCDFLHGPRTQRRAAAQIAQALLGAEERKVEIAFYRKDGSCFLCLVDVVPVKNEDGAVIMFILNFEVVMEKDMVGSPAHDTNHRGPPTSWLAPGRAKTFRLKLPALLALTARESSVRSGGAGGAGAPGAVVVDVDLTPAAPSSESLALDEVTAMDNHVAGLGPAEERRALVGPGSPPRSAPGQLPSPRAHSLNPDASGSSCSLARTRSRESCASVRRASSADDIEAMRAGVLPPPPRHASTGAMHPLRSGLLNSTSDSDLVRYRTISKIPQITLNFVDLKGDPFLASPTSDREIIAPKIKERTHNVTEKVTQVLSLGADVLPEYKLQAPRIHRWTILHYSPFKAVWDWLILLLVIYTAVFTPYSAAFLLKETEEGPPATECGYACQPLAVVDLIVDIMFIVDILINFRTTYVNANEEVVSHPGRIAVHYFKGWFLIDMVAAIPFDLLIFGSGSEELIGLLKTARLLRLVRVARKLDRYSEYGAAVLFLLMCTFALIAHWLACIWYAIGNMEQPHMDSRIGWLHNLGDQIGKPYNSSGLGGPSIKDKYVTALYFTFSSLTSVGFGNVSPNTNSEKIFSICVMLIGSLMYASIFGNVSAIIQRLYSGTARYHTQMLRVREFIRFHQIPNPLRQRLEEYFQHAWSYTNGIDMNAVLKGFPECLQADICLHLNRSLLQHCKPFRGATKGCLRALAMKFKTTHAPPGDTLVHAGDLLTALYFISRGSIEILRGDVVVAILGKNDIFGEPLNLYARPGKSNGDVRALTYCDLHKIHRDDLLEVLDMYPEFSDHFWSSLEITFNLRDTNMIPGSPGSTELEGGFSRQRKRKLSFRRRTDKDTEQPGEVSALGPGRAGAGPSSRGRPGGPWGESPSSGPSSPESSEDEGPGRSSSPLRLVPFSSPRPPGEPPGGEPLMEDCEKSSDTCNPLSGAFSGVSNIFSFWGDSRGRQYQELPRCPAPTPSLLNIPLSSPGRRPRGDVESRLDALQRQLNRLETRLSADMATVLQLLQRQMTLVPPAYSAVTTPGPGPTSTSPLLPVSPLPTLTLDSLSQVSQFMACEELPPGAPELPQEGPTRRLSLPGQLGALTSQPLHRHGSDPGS
row,Structure (SMILES),"hERG current change (%, negative = inhibition) at 10uM [%]"
1,O=C(Nc1ccccc1)/C(=C/c1cccnc1)NC(=O)c1ccccc1,2.08
2,Cc1cc2nsnc2c(S(=O)(=O)NCC(=O)O)c1C,-4.2
3,COc1ccc2cc(C#N)c(Cl)nc2c1,20.2
4,O=C(Nc1nnc(Cc2ccc(Cl)cc2)s1)c1cccs1,-4.72
5,O=C(Nc1ccc(Cl)cc1)Nn1cnc2ccccc2c1=O,7.47
6,C/C(CC(=O)Nc1cccc(C(F)(F)F)c1)=N\NC(=O)c1ccncc1,14.3
7,N#Cc1nc(N2CCOCC2)nc(N2CCOCC2)n1,-38.6
8,COc1cc(/C=N/NC(=O)Cc2ccccc2)cc(OC)c1OC,8.74
9,O=C1OCCN1C(=O)[C@H]1[C@H](c2ccc(F)cc2)C(c2ccc(F)cc2)=NN1c1ccc(Br)cc1,13
10,CC(=O)N1CCN(CC(=O)Nc2ccccc2Sc2ccccc2)CC1,-59.5
11,Cc1ccccc1CN(c1ccc(C(=O)N2CCN(C)CC2)cc1)S(C)(=O)=O,18.9
12,COc1ccc(C(CC(=O)O)NC(=O)COc2ccccc2)cc1 (centres unmarked),7.42
13,Cc1ccc(C(=O)Nc2cccc(C(=O)NC3CCCC3)c2)cc1,10.6
14,Cc1cccc(CN2CCN(Cc3ccc(Cl)cc3)CC2)c1.O=C(O)C(=O)O,-40
15,CCN1CCN(C(=O)C2CCCN(S(=O)(=O)c3cccc4nsnc34)C2)CC1 (centres unmarked),-10.1
16,CCOC(=O)C1=CN(C)C=C(C(=O)OCC)C1c1ccsc1,-28.5
17,C=CCNc1nc(S(=O)Cc2ccc(C)cc2)nc2c1CCCC2 (centres unmarked),-17.1
18,CC(C)CSc1nnc(N)s1,11.5
19,Nc1nnnn1/N=C/C(Br)=C/c1ccccc1,-13.8
20,NC(=O)c1cccnc1Nc1cccc(F)c1,-4.36
21,CC1Sc2ccc(S(=O)(=O)CCC(=O)N3CCN(c4ccccc4)CC3)cc2NC1=O (centres unmarked),10.9
22,COCCNC(=O)CCCn1c(=O)c2cc(OC)c(OC)cc2n(CC(=O)c2cccc(OC)c2)c1=O,4.37
23,O=C(CSc1cccc[n+]1[O-])CSc1cccc[n+]1[O-],7.05
24,Cc1cccc2c3nc4ccccc4nc3n(C)c12,15
25,Cc1csc(NC(=O)C(Cc2ccccc2)n2cccc2)n1 (centres unmarked),-1.9
26,Cc1c(C(=O)NCC2CCCO2)oc2ccc(Br)cc12 (centres unmarked),-14
